# The source gives no read counts; variants with many changes may rest on few reads.
# B1: CPEB3 Ribozyme (parent)
# chain: UAACAGGGGGCCACAGCAGAAGCGUUCACGUCGCAGCCCCUGUCAGAUUCUGGUGAAUCUGCGAAUUCUGCUGUAUAUCUC
# Variants of: B1
# Assay: self-cleavage, relative activity (ratio to wild type); higher = more cleavage; in vitro, sequencing
# Method in brief: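 For each CPEB3 ribozyme variant, relative activity is its cleaved/total read fraction divided by the unmutated ribozyme's. Barcoded error-prone PCR libraries were transcribed by T7 RNA polymerase (5 hours, 37°C) and held in DNase I for 15 min before an EDTA stop, with cleavage occurring throughout. Template-switching reverse transcription and Illumina sequencing were used to read the RNAs. A 5-read minimum applied, and results are the mean of three batches.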
row,Variant,self-cleavage
1,UAACAGGGGGCCACAGCAGAAGCGUUCACGCCACGGCCCCUGUCAGAUUCUGGUGAAUCUGCGAAUACUGCUGUAUAUCUC,0.09
2,UAACAGGGGGCCACAGCAGAAGCGUUCACGCCGCAGCCCCUAUCAGAUUCUGGUGAAUCUGCGAAUUGUGCUGUAUACCUC,0.1
3,UAACAGGGGGCCACAGCAGAAGCGUUCACGCCGCACCCCCUGUCAGAUUCUUGUGAAUCUGCGAUUUCUGCUGCAUAUCUC,0.08
4,UAACAGGGGGCCACAGCAGAAGCGUUCACGCCGCAGCCCGUGUCAGAUUCUGGUGAAUCUGCGAAUUCUGCCGUAUAUCUC,0.33
5,UAACAGGGGGCCACAGCAGAAGCGUUCACGCGGCAGCCCCUGUCAGAUUCUGGUGAUUCUGCGAAUUCUGCUGUAUAUCUC,0.16
6,UAACAGGGGGCCACAGCAGAAGCGUUCACGCCGCAGCCCCUGUCAGAUUCUGGUGAAUCUGCGAGUUCUGCUGUAUAUCGC,0.41
7,UAACAGGGGGCCACAGCAGAAGCGUUCACGCCGCAGCCCCUGUCAUAUUCUGGUGAAUCUGUGAAUUCUGCUGUAUAUCUC,0.26
8,UAACAGGGGGCCACAGCAGAAGCGUUCACGCCACAGCCCCUGUCAGAUUCCGGUGAAACUGCGAAUUCUGCCGUAUAUCUC,0.08
9,UAACAGGGGGCCACAGCAGAAGCGUUCACGCCGCAGCCCCUGUCAGAUUCUGGUGAAUCUGCGAGCUCUGCUGUAUACCUC,0.08
10,UAACAGGGGGCCACAGCAGAAGCGUUCACGCCGCAGCCCCUGUCAGAUUCUGGUGAAUCUGCGUAUUCUGCAGUAUAUCUC,0.18
11,UAACAGGGGGCCACAGCAGAAGCGUUCACGCCGCAGCCCCUGUCAGAUUCUGGUGGAUCUGCGAACUCUGCUGUAUAUCUC,0.37
12,UAACAGGGGGCCACAGCAGAAGCGUUCACGCCGCAACCCCUGUCGGAUUCUGGUGAAUCUGCGAAUUCUGCUGAAUAUCUC,0.18
13,UAACAGGGGGCCACAGCAGAAGCGUUCACGCCGCAGCCCCUGUCAGGCUCUGGUGAAUCUGCGAAUUCUGCUGUAUAUCUC,0.41
14,UAACAGGGGGCCACAGCAGAAGCGUUCACGCCGCAGCCCCUGUCAGAUUCUGGUGAAUCUGCGAGUUCUGCUAUAUAUCGC,0.69
15,UAACAGGGGGCCACAGCAGAAGCGUUCACGCCGCAGCUCCUGUCAGAUUCUGGUGAAUCUGCGAAUUCCGCUGUAUAUCCC,0.12
16,UAACAGGGGGCCACAGCAGAAGCGUUCACGCCGCAGCCCCUAUCAGACUCCGGUGAAUCUGCGAAUUCUGCUGUAUAUCUC,0.12
17,UAACAGGGGGCCACAGCAGAAGCGUUCACGCCACAGUCCCUGUCAGAUUCCGGUGAAUCUGCGAAUUCUGCUGUAUAUCUC,0.11
18,UAACAGGGGGCCACAGCAGAAGCGUUCACGCCACAGCCCCUGUCAGCUUCUGGUGAAUCUGCGAAUUCUGCCGUAUAUCUC,0.13
19,UAACAGGGGGCCACAGCAGAAGCGUUCACGCCGCAGCCCCUGUCAGAUUCUGGUGUGUCUGCGAAUUCAGCUGUAUAUCCC,0.08
20,UAACAGGGGGCCACAGCAGAAGCGUUCACGCCGCAGCCCCUAUCAGAUUCUGGUGAAUCUGCGAGUUCUGCUGUGUAUCUC,0.06
21,UAACAGGGGGCCACAGCAGAAGCGUUCACGCCGCAGCCCCUGUCAGAUUCUGGUGAGUCUGCGAAUUCUGCUGCAUAUCUC,1.31
22,UAACAGGGGGCCACAGCAGAAGCGUUCACGCCGCAGUCCCUGUCGGAUUCUGGUGAAUCUGCGAACUCUGCUGUAUAUCUC,0.13
23,UAACAGGGGGCCACAGCAGAAGCGUUCACGCCUCAGCCCCUGUCAGAUUCUGGUGAAUCUGCGAAUUCAGCUGCAUAUUUC,0.12

row,Variant,self-cleavage
1,UAACAGGGGGCCACAGCAGAAGCGUUCACGCCGCAUCCCCUGUCAGAUUCUGGUCAAUCUGCGAAUUCUGCUGUAUAUCUC,0.12
2,UAACAGGGGGCCACAGCAGAAGCGUUCACGCCGCAGCCCCUGUCAAGUUCUGGCGAAUCUGCGAAUUCUGCAGUAUAUCUC,0.06
3,UAACAGGGGGCCACAGCAGAAGCGUUCACGCCGCAGCCCCUGUCAGAUUCUGGUGAAUCUGCGGAUUCUGCUGCAUAUCCC,0.68
4,UAACAGGGGGCCACAGCAGAAGCGUUCACGCCGCAGCCCCUGUCAGAUUCUGGUGAAUCUGGGAACUCUGCUGUAUAUCUC,0.14
5,UAACAGGGGGCCACAGCAGAAGCGUUCACGCCGGAGCCCCUGUCAGGUUCUGGUGGGUCUGUGAAUUCUGCUGUAUAUCUC,0.07
6,UAACAGGGGGCCACAGCAGAAGCGUUCACGCCGCAGCACCAGUCAGAUUCUGGUGUAUCUGCGAAUUCUGAUGUAUAUCUC,0.06
7,UAACAGGGGGCCACAGCAGAAGCGUUCACGCCGCAGACCCUGUCAGAUUCUGGUGAAUCUGCGAGUUCUGCUGAAUCUCCC,0.12
8,UAACAGGGGGCCACAGCAGAAGCGUUCACGCAGCAGCCCCUGUCAGAUUCUGGUGAAUCCGCGGAUUCUGCUGUAUAUCUC,0.1
9,UAACAGGGGGCCACAGCAGAAGCGUUCACGCCGCAGCCCCUGUCAGAUUCUGGUGGACCUGCGAAUUCUGCCGUAUAUCUC,0.26
10,UAACAGGGGGCCACAGCAGAAGCGUUCACGCCGCAGCCCCUGUCAGAUUCUGGUGAAUCUGCGAAUUCUGCUGUGAAUCUC,0.84
11,UAACAGGGGGCCACAGCAGAAGCGUUCACGCCGCAGCCACUGCCAGAUUCUGGUGGAUCUGCGAAUUCUGCUGUAUAUCUC,0.09
12,UAACAGGGGGCCACAGCAGAAGCGUUCACGCCGCAGCCCUUGUCAGAUUCCGGUGAAUCUGCGAACUCAGCUGUAUAUCUC,0.12
13,UAACAGGGGGCCACAGCAGAAGCGUUCACGCCGCAGCCCCUGUCAGGUACUGGUGAAUCUGCGAAUUCUGCUGUAUUUCUC,0.15
14,UAACAGGGGGCCACAGCAGAAGCGUUCACGCCGCAGCCCCUGUCAGAUUCUGGUGUAUCUGCGAAUUCUGCAGUAUAUCUC,0.17
15,UAACAGGGGGCCACAGCAGAAGCGUUCACGCCGCAGCCCCUGUCAGAUUCUGGUGUAUCUGCGAAUUCUGCCGUAUAUCUC,0.24
16,UAACAGGGGGCCACAGCAGAAGCGUUCACGCCGCAGCCCCUGUCAGAUUCUGGUGAAUCUGCGAGUUCUGCUGUACAUCUC,0.24
17,UAACAGGGGGCCACAGCAGAAGCGUUCACGCCACGGCCCCUGUCAGACUCUGGUGAAUCUGCGAAUACUGCUGUAUAUCUC,0.17
18,UAACAGGGGGCCACAGCAGAAGCGUUCACGCCGCAGCCCUUGUCAGAUUCUGGUGAAUCUGCGAAUUCUGCCGUAUAUCUC,0.55
19,UAACAGGGGGCCACAGCAGAAGCGUUCACGCGGCAGCCCCUGUCAGAUUCUGGUGAAUCUGCGAGUUCUGCUGUAUACCUC,0.12
20,UAACAGGGGGCCACAGCAGAAGCGUUCACGCCGCAGCCCUUGCCAGAUUCUGGUGAAUCUGCAAAUUCUGCUGUAUAUCUC,0.19
21,UAACAGGGGGCCACAGCAGAAGCGUUCACGCCGUAGCCCCUGUCAGGUUCUGGUGAAUCCGCGAAUUCUGCUGUAUAUCUC,0.08
22,UAACAGGGGGCCACAGCAGAAGCGUUCACGCCGCAGCCCCUGUCAGAUUCUGGUGUAACUGCGAAUUCUGCUGUAUAUCUC,0.15
23,UAACAGGGGGCCACAGCAGAAGCGUUCACGCCGCAGCCCCUGUCAGAUUCUGGUGAAUCUGCGUAAUCUGCUGUAUAUCUC,0.17

row,Variant,self-cleavage
1,UAACAGGGGGCCACAGCAGAAGCGUUCACGCCGCAGCCCCUGUCAGAUUCUAGUGAAUCUGCGAAUUCUGCAGUAUAUCUC,0.59
2,UAACAGGGGGCCACAGCAGAAGCGUUCACGCCGCAGCCCCUGUCAGAUUCUGGUGAAUCUGCGAAUUCUGCUGUAUGCCUC,0.81
3,UAACAGGGGGCCACAGCAGAAGCGUUCACGCCGCAGCCCCUGUCAGAUUCUAGUGAAUCCGCGAAUUCUGCUGUAUAUCCC,0.7
4,UAACAGGGGGCCACAGCAGAAGCGUUCACGCUGCAGCCCCUGCCAGAUUCUGGUGAAUCUGCGAAUUCUGCUGUAUAUCUC,0.14
5,UAACAGGGGGCCACAGCAGAAGCGUUCACGCCGCAGCCCCUGUCAGAUUUCGGUGAAUCUGCGAAUUCUGCUGCGUAUCUC,0.95
6,UAACAGGGGGCCACAGCAGAAGCGUUCACGCCUCAGCCCCUGUCAGCUUCUGGUGAAUCUGCGAAUUCUGCCGUAUAUCUC,0.07
7,UAACAGGGGGCCACAGCAGAAGCGUUCACGCCGCAACCCCAGUCAGAUUCUGGUGAAUCUGCGAAUUCUGCUGUAUAUCUC,0.45
8,UAACAGGGGGCCACAGCAGAAGCGUUCACGCCGUAGCCCCUGUCAGAUUCUGGUGAAUCUGCGAAUUCAGCUGUAUAUCUC,0.11
9,UAACAGGGGGCCACAGCAGAAGCGUUCACGCCGCAGCCCCUGUCAGAUUCUGGUGAGUCUGCGAAUUCUGCUGUAUACCUC,0.65
10,UAACAGGGGGCCACAGCAGAAGCGUUCACGCCACAGCCCCUGUCAGAUACUGGUGAGUCUGCGAGUUCGGCUGUAUACCUC,0.04
11,UAACAGGGGGCCACAGCAGAAGCGUUCACGCCGCAGCCCCUGUCAGAUUCUGGUGUAUCUGCGGAUUCUGCUGUAUAUCUC,0.15
12,UAACAGGGGGCCACAGCAGAAGCGUUCACGCCGCAGCCCCUGUCAGAUUCUGGUGAAUCUGCGGAUUCUGCUGUAUAUCCC,0.72
13,UAACAGGGGGCCACAGCAGAAGCGUUCACGCUGCAGCCCCUGUCAGAUUCAGGUGAAUUUGCGAAUUCUGCUGUAAAUCUC,0.06
14,UAACAGGGGGCCACAGCAGAAGCGUUCACGCCGCAGCCCCUGUCAGAUUCUGGUGAAUCUGCGGAUUCUGCUGUAUAACUC,0.73
15,UAACAGGGGGCCACAGCAGAAGCGUUCACGCCGCAGCUCCAGUCAGAUUCUGGUGGAUCAGCGAAUUCUGCUGUAUAUCUC,0.08
16,UAACAGGGGGCCACAGCAGAAGCGUUCACGCCGCAGCCCCUGUCAGAUUCUGGUGAAUCUGCGGAUUCAGCUGUAUAUCUC,0.12
17,UAACAGGGGGCCACAGCAGAAGCGUUCACGCCGCAGCCCCUGUCAGAUUCUGGUGAAUCUGCGAGAUUCGCUGUAUAUCUC,0.22
18,UAACAGGGGGCCACAGCAGAAGCGUUCACGCUGCAGCCCCUGUCAUAUUCUGGUGAAUCUGCGAAUUCUGCUGUACAUCUC,0.03
19,UAACAGGGGGCCACAGCAGAAGCGUUCACGCCGCAGCCCCUGUCAGAUUCUGGUGAAUCUGCGUAUUUUGCUGUAUAUCUC,0.43
20,UAACAGGGGGCCACAGCAGAAGCGUUCACGCCGCAGCCCGUGUCAGAUUCCUGUGAAUCUGCGAAUUCUGCUGUAUAUCUC,0.38
21,UAACAGGGGGCCACAGCAGAAGCGUUCACGCCGCAGCCCUUGUCAGAUUCUGGUGAAACUGCGAAUUCUGCAGUGUAUCUC,0.18
22,UAACAGGGGGCCACAGCAGAAGCGUUCACGCAGCAGCCCCUGUCGGAUUCUGGUGAAUCUGCGAAUUCUGCUGUAUGUCUC,0.13
